# Laboratory results: article PMC4336329 (PLoS ONE, 2015)
# In all, about 310,000 compounds went through this assay and about 2,200 (0.71%) showed an effect of 50% or more. Effects have a minus sign here. The list shows a part of the results.
# Biological target: human ether-à-go-go-related gene (hERG) potassium channel (human, UniProt Q12809)
# Assay: primary screen, population patch clamp on CHO cells stably expressing hERG
# Sequence of human ether-à-go-go-related gene (hERG) potassium channel (Q12809 whole entry, looked up): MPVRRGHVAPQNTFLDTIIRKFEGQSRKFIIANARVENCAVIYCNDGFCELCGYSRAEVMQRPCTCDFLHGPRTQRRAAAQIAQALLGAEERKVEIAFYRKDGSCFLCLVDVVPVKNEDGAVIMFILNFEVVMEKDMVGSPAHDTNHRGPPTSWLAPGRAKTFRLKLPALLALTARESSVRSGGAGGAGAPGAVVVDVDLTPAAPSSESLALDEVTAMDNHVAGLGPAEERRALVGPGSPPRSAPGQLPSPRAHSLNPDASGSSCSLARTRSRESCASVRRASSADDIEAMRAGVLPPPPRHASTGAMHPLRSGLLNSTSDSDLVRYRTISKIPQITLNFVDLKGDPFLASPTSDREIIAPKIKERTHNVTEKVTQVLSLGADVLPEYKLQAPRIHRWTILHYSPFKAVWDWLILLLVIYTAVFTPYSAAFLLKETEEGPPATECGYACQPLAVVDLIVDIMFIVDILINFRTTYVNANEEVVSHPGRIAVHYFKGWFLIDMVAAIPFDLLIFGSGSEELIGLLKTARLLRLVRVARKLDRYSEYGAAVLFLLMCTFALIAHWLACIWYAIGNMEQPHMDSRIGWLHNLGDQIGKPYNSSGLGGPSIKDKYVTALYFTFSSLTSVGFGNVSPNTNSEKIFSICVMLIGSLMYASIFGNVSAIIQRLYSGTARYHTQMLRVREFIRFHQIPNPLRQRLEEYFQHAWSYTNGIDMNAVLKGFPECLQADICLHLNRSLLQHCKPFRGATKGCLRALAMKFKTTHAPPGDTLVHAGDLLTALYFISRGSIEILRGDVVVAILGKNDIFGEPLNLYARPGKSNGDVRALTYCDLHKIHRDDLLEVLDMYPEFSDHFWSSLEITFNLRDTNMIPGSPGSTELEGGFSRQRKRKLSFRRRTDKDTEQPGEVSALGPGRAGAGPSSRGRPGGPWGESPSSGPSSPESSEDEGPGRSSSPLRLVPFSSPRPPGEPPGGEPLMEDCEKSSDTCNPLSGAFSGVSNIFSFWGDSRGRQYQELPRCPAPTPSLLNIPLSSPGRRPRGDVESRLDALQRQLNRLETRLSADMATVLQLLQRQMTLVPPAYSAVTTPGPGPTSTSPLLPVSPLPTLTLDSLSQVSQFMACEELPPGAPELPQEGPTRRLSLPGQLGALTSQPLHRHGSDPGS
row,Compound,"hERG current change (%, negative = inhibition) at 1uM"
1,O=C(Nc1ccc2oc(-c3ccccc3Cl)nc2c1)c1ncn[nH]1,4.01%
2,CCOC(=O)CC1=C(C(=O)OCC)C(c2cc(OC)c(OC)cc2OC)C(C#N)=C(N)O1 (stereo not drawn),5.76%
3,CCN1CCCC1CNCc1ccc(OCc2ccc(Cl)nc2)c(OC)c1.Cl (stereo not drawn),-2.56%
4,O=C(Nc1cc(=O)[nH]c2ncnn12)c1ccco1,14.2%
5,Cc1cccc(C)c1OCCN1CCCC1,12.3%
6,COC(=O)[C@]1(CC(C)C)N[C@H](c2ccc(-c3ccc(Cl)c(Cl)c3)cc2)[C@@H]2C(=O)N(C)C(=O)[C@@H]21.O=C(O)C(F)(F)F,11.3%
7,COc1ccc(OC)c(NC(=O)CC2C(=O)NCCN2C(=O)Nc2cccc(Cl)c2)c1 (stereo not drawn),5.49%
8,Cc1ccc(S(=O)(=O)N(C)CC(=O)OCC(=O)N2CCCC2=O)cc1,7.55%
9,O=C(C1Cc2ccccc2CN1S(=O)(=O)c1cccs1)N1CCCCC1 (stereo not drawn),3.1%
10,O=C(O)CCCC(=O)N1N=C(c2ccccc2)CC1c1cccs1 (stereo not drawn),1.73%
11,Cc1ccc(S(=O)(=O)N/N=C\c2ccc(C)o2)cc1,8.41%
12,COc1cccc(NC(=O)c2nnn(CC(=O)Nc3cc(C)cc(C)c3)c2N)c1,12.5%
13,CCOCC(=O)Nc1nnc(C)s1,11.7%
14,CCCCCN(C(=O)CCC(=O)OCC(=O)NCc1cccc(OC)c1)c1c(N)n(CCCC)c(=O)[nH]c1=O,0.573%
15,O=C(Cn1c2c(c(=O)n3ncnc13)CCC2)N/N=C/c1ccc(Cl)cc1,9.25%
16,COC(=O)c1cccc(NC(=O)c2cc(OC)c(OC)c(OC)c2Br)c1,11.3%
17,CC(NC(=O)c1ccc(N(C)C)c([N+](=O)[O-])c1)c1ccc(-n2ccnc2)cc1 (stereo not drawn),-2.05%
18,Cc1ccc(Cn2c(C(C)Nc3nc(-c4ccc(Cl)c([N+](=O)[O-])c4)cs3)nc3cc(C(F)(F)F)ccc32)cc1 (stereo not drawn),7.11%
19,CCN1C(=O)c2ccccc2Sc2ccc(C(=O)NCCCN3CCCCC3)cc21,3.53%
20,O=C(NCc1ccc2c(c1)OCO2)c1nnc(Cc2ccc(Cl)cc2)o1,10.1%
21,CCOc1ccc(S(=O)(=O)N(CC(=O)N/N=C/c2ccc(-c3ccc([N+](=O)[O-])cc3)o2)c2ccccc2)cc1,-1.72%
22,NC(=O)c1ccc(NC(=O)CNCc2ccccc2Cl)cc1,13.1%

row,Compound,"hERG current change (%, negative = inhibition) at 1uM"
1,CC(=O)c1ccc(NC(=O)C2(c3ccccc3)CCOCC2)cc1,10.2%
2,CCCOc1ccc(C(=O)NCCc2ccccc2)cc1,-2.39%
3,COc1ccc(C(CC(=O)N2CCCCC2)c2c(OC)cc(OC)c3ccc(=O)oc23)cc1 (stereo not drawn),16.8%
4,Cc1ccnc(NC(=O)c2cc3c(=O)oc4ccc(C)cc4c3s2)c1,12.9%
5,COc1ccc(/C=N/n2c(C)cc(C)c(C(N)=O)c2=O)cc1,13.2%
6,COc1cc(/C=C/C(=O)NC(=O)c2ccccc2O)ccc1O,9.8%
7,COC(=O)c1ccc(COC(=O)CNS(=O)(=O)c2ccc(C)cc2)cc1,12.4%
8,COc1ccc(C(=O)NCc2nc(C)c(C)s2)cc1OC1CCN(C(C)C)CC1,15.3%
9,COc1ccc(S(=O)(=O)N2CCCCC2)cc1NCC(=O)Nc1ccc(C)cc1,12.6%
10,COC(=O)c1cc(C(=O)N2CCN(c3ncccn3)CC2)cc([N+](=O)[O-])c1,4.57%
11,O=C(CSc1nnc2c(n1)[nH]c1ccccc12)NC1CCCCC1,8.34%
12,O=C(CCNC(=O)c1ccc(Br)cc1)Nc1ccccc1N1CCCCC1,9.7%
13,CC1(C)C2CC=C(/C=N/NC(=S)NCCc3ccccc3)C1C2 (stereo not drawn),8.68%
14,COc1cccc(C(=O)NCc2ccc3c(c2)OCO3)c1OC,13.7%
15,CCN1CCN(C(=O)c2ccc(CN(c3ccccc3)S(=O)(=O)c3ccccc3)cc2)CC1,-9.8%
16,CCOc1ccc(NC(=O)CSc2nnc(-c3ccoc3C)n2CC2CCCO2)cc1 (stereo not drawn),2.35%
17,COc1ccccc1NS(=O)(=O)c1cc(NC(=O)c2ccco2)ccc1N1CCOCC1,9.3%
18,CN(C)CCCNc1ncnc2c1c(-c1ccccc1)cn2-c1ccccc1,-18.2%
19,O=C(CCS(=O)(=O)c1ccc(Br)s1)Nc1ccccc1Br,7.6%
20,O=C(Nc1ccccc1)Nc1ccc2nnsc2c1,5.61%
21,O=C(NCC(c1ccco1)N1CCN(c2ccccc2)CC1)c1ccc2c(c1)OCO2 (stereo not drawn),4.24%
22,CC1CN(C2=NC(=O)/C(=C/c3ccncc3)S2)CC(C)O1 (stereo not drawn),2.25%

row,Compound,"hERG current change (%, negative = inhibition) at 1uM"
1,COc1ccc(CCNC(=O)c2ccc(Cl)cc2Cl)cc1OC,-3.17%
2,CCC(=O)Nc1ccc(NC(=O)c2ccccc2Cl)nc1,11.6%
3,CCOC(=O)CCn1c(=O)c2c(nc(Br)n2Cc2ccccc2)n(C)c1=O,-0.0932%
4,CC12CN3CC(C)(CN(C1)C3c1ccco1)C2=O (stereo not drawn),4.46%
5,CCc1c(O)nc(SCC(=O)NC(C)(C)C)n(-c2ccccc2)c1=O,6.69%
6,O=C(CN1C2CCCC1CC(NC(=O)c1ccco1)C2)Nc1ccccc1C(F)(F)F (stereo not drawn),0.252%
7,Cc1ccc2c(c1)c1c(n2C)C(C(N)=O)CCC1 (stereo not drawn),-10.2%
8,CCc1cccc2c(=O)c(C(=O)NCCN3CCOCC3)c[nH]c12,16.1%
9,Cc1ccc(OCc2nc(-c3ccccc3)no2)c(C)c1,1.61%
10,CCOC(=O)CC1C(=O)NCCN1C(=O)c1cccc(C(F)(F)F)c1 (stereo not drawn),13%
11,COc1ccc(NC(=O)CN2CCC(C)CC2)cc1,-0.0667%
12,Cc1cc(S(=O)(=O)N2CCN(C(=O)CCC(=O)N3CCOCC3)CC2)ccc1Br,10.9%
13,Cc1[nH]c(N=Nc2ccccc2)nc1N=Nc1ccccc1,16.5%
14,CC1(C(=O)Nc2nccs2)Cc2ccccc2C(=O)O1 (stereo not drawn),-3.57%
15,NS(=O)(=O)c1ccc(CCNC(=O)c2ccccc2OCc2ccc(F)cc2)cc1,13.8%
16,O=C(NCc1ccccc1)c1cccc(COc2cc(Cl)ccc2Cl)c1,13.9%
17,Cc1nn(CC(=O)Nc2cccnc2)c(C)c1[N+](=O)[O-],11.5%
18,CCOCCCNC(=O)C1CCN(C(=O)Nc2ccc(C)cc2)CC1,2.66%
19,COc1ccc(Cl)cc1N(CC(=O)N1CCCCC1)S(C)(=O)=O,19%
20,CS(=O)(=O)Nc1ccc(S(=O)(=O)N2CCOCC2)cc1,8.65%
21,CCCCN(CC)C(=O)CN(C)S(=O)(=O)c1cccc2nsnc12,9.78%
22,C/C(=N/NC(=O)c1nnn(-c2nonc2N)c1-c1ccccc1)c1ccc2c(c1)OCO2,14.8%

row,Compound,"hERG current change (%, negative = inhibition) at 1uM"
1,CCN(C(=O)COC(=O)c1ccc(Br)o1)C1CCCCC1,8.75%
2,CC1CC(C)CN(C(=O)C2CCCN(S(=O)(=O)c3cnc[nH]3)C2)C1 (stereo not drawn),2.33%
3,CC1CN(C(=O)c2ccc(NS(=O)(=O)c3ccc(F)cc3)cc2)CC(C)O1 (stereo not drawn),12.6%
4,CCCCSC(=O)Nc1ccccc1,4.75%
5,C=CCn1c(SCC(=O)OC)nc2sc3c(c2c1=O)CCN(C)C3,-6.47%
6,COc1ccc(N(C(=O)Cn2nnc(-c3ccccc3F)n2)C(C(=O)NCC2CCCO2)c2ccc(Cl)cc2)cc1 (stereo not drawn),16%
7,CC(C)Cc1nnc(NC(=O)CCC(=O)NCCc2ccccc2)s1,11.9%
8,CSc1ccccc1C(=O)N1CCCC(CCC(=O)NCc2ccc(F)c(F)c2)C1 (stereo not drawn),13.9%
9,N#Cc1nc(-c2cccs2)oc1NCc1ccccc1,4.69%
10,O=C(Cn1c(=O)oc2cc(S(=O)(=O)N3CCCCC3)ccc21)N1CCCCC1,13.4%
11,N#Cc1c(C(F)(F)F)cc(=O)[nH]c1SCC(=O)O,8.23%
12,CSc1ccc2c(c1)C(N1CCN(C)CC1)Cc1ccc(F)cc1S2.O=C(O)/C=C\C(=O)O (stereo not drawn),3.82%
13,Cc1nc(SCCOc2ccccc2F)[nH]c(=O)c1Cc1ccccc1,22.9%
14,O=C(Nc1sc2c(c1C(=O)O)CCC2)c1ccccc1Cl,19.6%
15,CCOc1ccccc1C(=O)N[C@H](C(=O)Nc1ccc(OC)c(S(=O)(=O)N2CCOCC2)c1)C(C)C,13.6%
16,CC(=O)N1CCN(C(=O)COC(=O)COc2c(C)cc(C)cc2C)CC1,-0.0845%
17,CCOC(=O)CSc1nnc(-c2ccccc2)c(-c2ccccc2)n1,10.7%
18,COc1ccc(Cl)cc1-c1csc(N)n1,-6.49%
19,CCCCCn1c(=O)[nH]c2cc(C(=O)NCc3ccccn3)ccc2c1=O,12.4%
20,O=C(Nc1cnn(Cc2ccc(F)cc2)c1)c1cc(-c2cccs2)on1,-2.6%
21,COc1ccc(NC(=O)C(=O)Nc2cccc3cccnc23)cc1OC,13.2%
